# Source: the supplement of paper PMC7826260
# This is one part of the list. One pool of 16,384 single-stranded DNAs met each Rep nickase domain in vitro for 1 h at 37 °C with 3 µM enzyme; only the middle of the 90-letter strands is printed. The score is log2 (uncut reads / reads without enzyme); more negative means more cut, near 0 not cut, and no call is made. Because reads are shares of a total, they shift together; where an enzyme cuts many sequences, the uncut ones exceed 0.
# Key:
# Assay in all cases: uncleaved DNA left, log2 of reads against the no-enzyme library (log2 ratio); higher = less cleavage (more negative = more Rep cleavage of the k-mer); sequences stand for … in CTCGTCCG…ACCGGAGA
# [1] = system: T1, Rep nickase domain of Muscovy duck circovirus
# T1 sequence (residues 1-111, tag not shown): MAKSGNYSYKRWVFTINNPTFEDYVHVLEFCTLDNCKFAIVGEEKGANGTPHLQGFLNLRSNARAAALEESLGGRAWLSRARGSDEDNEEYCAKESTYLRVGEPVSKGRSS
# Protocol: (§1)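 A pool of 90-nt single-stranded DNAs with seven random bases just before the constant AC of the nick site (name = the seven bases) was cut by 3 µM recombinant His6-SUMO-tagged Rep nickase domain (300 nM DNA, 50 mM HEPES pH 8.0, 50 mM NaCl, 1 mM MnCl2, 1 h, 37 °C, three replicates). Uncut DNA was amplified and sequenced.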
# [2] = system: T2, Rep nickase domain of banana bunchy top virus
# T2 sequence (residues 1-94, tag not shown): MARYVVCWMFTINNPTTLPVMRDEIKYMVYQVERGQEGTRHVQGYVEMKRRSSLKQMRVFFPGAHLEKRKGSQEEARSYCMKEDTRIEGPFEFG
# Protocol: as §1
# [3] = system: T3, Rep nickase domain of cabbage leaf curl virus
# T3 sequence (residues 1-116, tag not shown): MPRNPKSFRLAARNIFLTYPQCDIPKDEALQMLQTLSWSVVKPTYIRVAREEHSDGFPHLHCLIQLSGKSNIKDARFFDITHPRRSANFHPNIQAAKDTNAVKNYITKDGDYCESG
# Protocol: as §1
# [4] = system: T4, Rep nickase domain of chickpea chlorotic dwarf virus
# T4 sequence (residues 1-124, tag not shown): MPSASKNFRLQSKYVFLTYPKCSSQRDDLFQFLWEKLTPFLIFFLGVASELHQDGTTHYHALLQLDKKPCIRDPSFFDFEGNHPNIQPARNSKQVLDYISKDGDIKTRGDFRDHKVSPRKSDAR
# Protocol: as §1
# [5] = system: T5, Rep nickase domain of faba bean necrotic yellows virus
# T5 sequence (residues 1-98, tag not shown): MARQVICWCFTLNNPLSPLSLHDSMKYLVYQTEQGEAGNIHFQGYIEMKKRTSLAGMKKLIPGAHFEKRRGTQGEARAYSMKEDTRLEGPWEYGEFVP
# Protocol: as §1
# [6] = system: T6, Rep nickase domain of maize striate mosaic virus
# T6 sequence (residues 1-117, tag not shown): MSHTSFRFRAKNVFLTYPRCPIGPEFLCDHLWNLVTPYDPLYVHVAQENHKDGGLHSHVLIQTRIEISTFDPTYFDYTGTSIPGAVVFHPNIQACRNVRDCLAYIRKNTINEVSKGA
# Protocol: as §1
# [7] = system: T7, Rep nickase domain of porcine circovirus 2
# T7 sequence (residues 2-116, tag not shown): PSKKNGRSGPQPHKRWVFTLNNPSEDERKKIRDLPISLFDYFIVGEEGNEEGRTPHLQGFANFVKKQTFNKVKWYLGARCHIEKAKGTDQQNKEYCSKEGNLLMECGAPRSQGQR
# Protocol: as §1
# [8] = system: T8, Rep nickase domain of tomato golden mosaic virus
# T8 sequence (residues 1-124, tag not shown): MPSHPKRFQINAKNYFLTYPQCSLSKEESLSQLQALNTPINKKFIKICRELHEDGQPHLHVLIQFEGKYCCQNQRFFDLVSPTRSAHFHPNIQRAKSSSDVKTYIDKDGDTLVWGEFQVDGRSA
# Protocol: as §1
# [9] = system: T9, Rep nickase domain of tomato yellow leaf curl virus
# T9 sequence (residues 1-136, tag not shown): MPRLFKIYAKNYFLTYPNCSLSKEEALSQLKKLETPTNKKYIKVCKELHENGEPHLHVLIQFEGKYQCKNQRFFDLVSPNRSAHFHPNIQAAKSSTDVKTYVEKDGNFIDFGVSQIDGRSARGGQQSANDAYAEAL
# Protocol: as §1
# [10] = system: T10, Rep nickase domain of wheat dwarf virus
# T10 sequence (residues 1-137, tag not shown): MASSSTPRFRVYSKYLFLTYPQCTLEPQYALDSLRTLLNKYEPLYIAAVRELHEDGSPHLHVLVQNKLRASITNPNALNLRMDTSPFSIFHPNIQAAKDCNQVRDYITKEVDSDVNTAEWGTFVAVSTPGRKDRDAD
# Protocol: as §1
Sequence,uncleaved DNA left (log2) [1],uncleaved DNA left (log2) [2],uncleaved DNA left (log2) [3],uncleaved DNA left (log2) [4],uncleaved DNA left (log2) [5],uncleaved DNA left (log2) [6],uncleaved DNA left (log2) [7],uncleaved DNA left (log2) [8],uncleaved DNA left (log2) [9],uncleaved DNA left (log2) [10]
TGGAGCG,0.11,0.0176,-0.788,-0.154,0.123,-1.1,0.129,0.0707,0.103,-0.0558
TGTGGGC,0.0281,0.0436,0.536,0.928,0.0707,1.06,0.16,0.0695,0.0438,0.0633
GGTCTTA,-0.0436,0.206,0.475,1.05,0.0616,1.94,0.087,0.163,0.167,0.152
AGTAGGT,0.114,0.00309,0.422,1.07,0.0548,1.33,-3,0.124,-0.0929,0.0674
TTGCGCA,0.0194,0.00458,-0.781,0.00347,-0.00841,-0.714,0.142,-0.0473,0.0484,-0.0975
GAGACCC,0.102,0.105,0.7,1.6,-0.0252,2,0.0594,0.016,0.152,0.187
TACGCAG,0.0829,-0.147,-0.913,-0.803,-0.0824,-1.19,0.125,-0.0842,-0.0713,-0.133
TCGAGCA,0.00202,0.103,0.134,0.305,-0.00118,0.0391,-2.46,0.0989,0.108,0.145
TCATACA,0.0533,0.0215,-0.175,-2,0.0532,-0.624,-0.191,-0.0327,0.0624,0.00137
GCCACCG,-0.0883,-0.062,-0.777,-0.596,-0.147,-0.841,0.0234,-0.0849,-0.166,-0.203
TCATGTA,-0.248,-0.0468,-0.168,-0.94,-0.0545,-0.983,-0.415,0.0269,0.0267,-0.118
TCGTACA,-0.177,-0.0483,-0.13,-1.79,0.0627,-0.348,-0.584,-0.139,-0.0802,-0.135
GTAGGCG,0.0297,0.0441,-0.664,0.411,0.108,-0.488,0.163,-0.0311,0.116,-0.136
TCACACG,0.0645,-0.112,-0.822,-0.784,0.0104,-1.27,0.185,-0.0964,0.0403,-0.151
CGTATGA,0.164,0.0732,0.137,0.339,0.018,0.162,0.158,-0.00571,0.0911,0.135
